Experimental data: PubChem BioAssay AID1963576 (National Center for Advancing Translational Sciences (NCATS), 2024)
Hit rate of the full screen: of about 46,000 compounds, about 60 (0.1%) were called active. Another 3% or so got no clear call; they are omitted. Calls follow the shape of the dose curve; as a rule, active = well fitted inhibition curve with a large enough effect; inconclusive = small, poorly fitted or top-dose-only effect; inactive = no such curve, though single readings can be large or run the other way. Some of the results follow.

Test: Primary qHTS assay for Inhibitors of ovarian cancer metastasis using an organotypic tumor microenvironment (TME) model. Also: nearly all actives have a fitted effect of over 65% in size.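 As to activity change, negative = inhibition: plate controls were DMSO wells for no effect and tomatine positive control wells for full effect.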
Conditions: SKOV3ip1-GFP adhesion/invasion on 3D omental model, fluorescence; series mostly up to 45.8 µM; activity change, negative = inhibition: at the top concentration
Summary of the method: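 qHTS, 4-pt dose (0.36-46 umol/L); SKOV3ip1-GFP, 1,200 cells/well, no FBS; primary omental fibroblast/mesothelial co-culture 48 h pre-grown; 2 h RT + 16 h 37 C; PBS wash, 4% PFA; GFP count 488/509 nm.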

Activity change, negative = inhibition, inactive:
CC(=O)N1c2ccc(S(=O)(=O)N3CCCCCC3)cc2CC1C(=O)NCc1ccccc1F (configuration not stated) -27.9%, CCOc1ccc(OCC)c(Nc2cc(C)nc3nc(-c4ccco4)nn23)c1 -2.47%, CCOC(=O)c1c(S(=O)(=O)N2CCC(C(=O)Nc3ccc(OCC)cc3)CC2)c(C)n(C)c1C 16.1%, CCCCN(CCCC)CCNC(=O)c1cn(C)c2ccc(S(=O)(=O)N3CCCC3)cc2c1=O 8.37%, CCc1cnc2c(c1SCC(=O)N1CCC(C)CC1)c(=O)n(C)c(=O)n2C 9.02%, Cc1c(NC(=O)Nc2ccc(F)c(Cl)c2)c(=O)n(-c2ccccc2)n1C -8.08%, O=C(NCc1ccccc1Cl)c1ccc(Nc2nc3ccccc3n3nnnc23)cc1 -8.11%, Cc1ccc(OCc2nc(-c3ccc(C(=O)N4CCN(c5ccccc5)CC4)cc3)oc2C)cc1 -0.55%, CCc1ccc(C2c3c(-c4cc(C)ccc4O)n[nH]c3C(=O)N2Cc2cccnc2)cc1 (configuration not stated) -18.5%, COc1ccc(OC)c(NC(=O)N2c3ccccc3Sc3ccccc32)c1 2.99%, Cc1ccc(-c2nn(CC(=O)Nc3cccc(C(F)(F)F)c3)c(=O)c3ccccc23)cc1 3.7%, Cc1oc(C)c2c(=O)cc(-c3ccc4c(c3)OCO4)cc(OC(=O)c3ccc(Cl)cc3)c12 -0.177%, Cc1ccc(-c2nc3ccccc3[nH]2)cc1NC(=O)COc1cccc(C)c1C -3.2%, Cc1ccc(-c2nonc2NC(=O)c2ccco2)cc1C 3.93%, COc1cc(CNc2ccc3[nH]c(=O)[nH]c3c2)cc(Cl)c1OCc1ccccc1F -25.3%, O=C(C=CC#Cc1cccc(NS(=O)(=O)c2ccccc2)c1)NO -9.7%, COc1ccc(C)cc1NC(=O)CCn1nc(C)cc1C 1.77%, CCC(Sc1nc2ccccc2c2nc(CCc3c(C)n[nH]c3C)nn12)C(=O)Nc1ccccc1F (configuration not stated) 8.16%, Cc1cccc(-c2[nH]ncc2-c2ccc3ncccc3n2)n1 -6.28%, COC(=O)c1ccc(NC(=O)CSc2n[nH]c(CC(C)C)n2)cc1 -6.22%, Cc1ccc(NC(=O)Cn2c(=O)c(CNc3ccccc3)cc3cc4c(cc32)OCCO4)cc1 0.841%, COc1ccc(CNC(=O)c2cc3cccc(OC)c3oc2=O)cc1 32.8%

outcome, inactive:
Cc1nn(CCC(=O)N2CCN(c3ccccc3)CC2)c(C)c1S(=O)(=O)N1CCCC1, Cc1ccc(CNC(=O)c2ccc3c(c2)N(Cc2cccc(C)c2)C(=O)CS3)cc1, COc1ccccc1Cn1c(CNS(=O)(=O)c2cccc([N+](=O)[O-])c2)nc2cccnc21, Cc1cccc(C)c1NC(=O)CSCc1cnn(-c2ccccc2)c1-n1cccc1, CCN(CC)C(=O)C1=C(C)Nc2nc3ccccc3n2C1c1cccc(Cl)c1 (configuration not stated)
